Test results from the supplement of paper PMC8728848.
This is one part of the list.

What was measured:
Experiment in all cases: glycan array binding signal (z-score within array); higher = stronger binding
Conditions in all cases: glycan notation: IUPAC condensed, linker removed
[1] = target: Gal(b1-4)GlcNAc(b1-6)GalNAc
How it was run: (§1)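 Arrays were curated from the Consortium for Functional Glycomics database, 3228 in total, and kept only where the protein sequence was available. Binding is expressed as a within-array Z-score. This score was averaged across arrays of the same protein sequence at different concentrations or buffers and across linkers, and negative values can be read as non-binding.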

[2] = target: Gal(b1-4)GlcNAc(b1-6)[Gal(b1-3)]GalNAc
How it was run: as §1

[3] = target: Gal(b1-4)GlcNAc(b1-6)[Gal(b1-4)GlcNAc(b1-3)]GalNAc
How it was run: as §1

Gal(b1-4)GlcNAc6P = target: Gal(b1-4)GlcNAc6P
How it was run: as §1

Gal(b1-6)Gal = target: Gal(b1-6)Gal
How it was run: as §1

Gal3S(b1-3)GalNAc = target: Gal3S(b1-3)GalNAc
How it was run: as §1

Gal3S(b1-3)GlcNAc = target: Gal3S(b1-3)GlcNAc
How it was run: as §1

[4] = target: Gal3S(b1-3)[Fuc(a1-4)]GlcNAc
How it was run: as §1

Gal3S(b1-4)Glc = target: Gal3S(b1-4)Glc
How it was run: as §1

Gal3S(b1-4)Glc6S = target: Gal3S(b1-4)Glc6S
How it was run: as §1

Gal3S(b1-4)GlcNAc = target: Gal3S(b1-4)GlcNAc
How it was run: as §1

[5] = target: Gal3S(b1-4)[Fuc(a1-3)]Glc6S
How it was run: as §1

[6] = target: Gal3S(b1-4)[Fuc(a1-3)]GlcNAc
How it was run: as §1

[7] = target: Gal3S(b1-4)[Fuc(a1-3)]GlcNAc6S
How it was run: as §1

Gal3S4S(b1-4)GlcNAc = target: Gal3S4S(b1-4)GlcNAc
How it was run: as §1

Gal3S6S(b1-4)GlcNAc = target: Gal3S6S(b1-4)GlcNAc
How it was run: as §1

Gal3S6S(b1-4)GlcNAc6S = target: Gal3S6S(b1-4)GlcNAc6S
How it was run: as §1

Gal4S(b1-4)GlcNAc = target: Gal4S(b1-4)GlcNAc
How it was run: as §1

Gal4S6S(b1-4)GlcNAc = target: Gal4S6S(b1-4)GlcNAc
How it was run: as §1

Gal6P(b1-4)GlcNAc = target: Gal6P(b1-4)GlcNAc
How it was run: as §1

Gal6S(b1-3)GlcNAc = target: Gal6S(b1-3)GlcNAc
How it was run: as §1

Gal6S(b1-3)GlcNAc6S = target: Gal6S(b1-3)GlcNAc6S
How it was run: as §1

Gal6S(b1-4)Glc = target: Gal6S(b1-4)Glc
How it was run: as §1

Gal6S(b1-4)Glc6S = target: Gal6S(b1-4)Glc6S
How it was run: as §1

Gal6S(b1-4)GlcNAc = target: Gal6S(b1-4)GlcNAc
How it was run: as §1

Gal6S(b1-4)GlcNAc6S = target: Gal6S(b1-4)GlcNAc6S
How it was run: as §1

GalNAc(a1-3)Gal = target: GalNAc(a1-3)Gal
How it was run: as §1

GalNAc(a1-3)GalNAc = target: GalNAc(a1-3)GalNAc
How it was run: as §1

[8] = target: GalNAc(a1-3)GalNAc(a1-3)Gal(a1-4)Gal(b1-4)GlcNAc
How it was run: as §1

[9] = target: GalNAc(a1-3)GalNAc(b1-3)Gal(a1-4)Gal(b1-4)Glc
How it was run: as §1

GalNAc(b1-3)Gal = target: GalNAc(b1-3)Gal
How it was run: as §1

[10] = target: GalNAc(b1-3)Gal(a1-4)Gal(b1-4)GlcNAc
How it was run: as §1

[11] = target: GalNAc(b1-3)Gal(a1-4)Gal(b1-4)GlcNAc(b1-3)Gal(b1-4)Glc
How it was run: as §1

[12] = target: GalNAc(b1-3)Gal(a1-6)Gal(b1-4)Glc
How it was run: as §1

GalNAc(b1-3)GalNAc = target: GalNAc(b1-3)GalNAc
How it was run: as §1

GalNAc(b1-3)GlcNAc = target: GalNAc(b1-3)GlcNAc
How it was run: as §1

GalNAc(b1-4)Gal(b1-4)Glc = target: GalNAc(b1-4)Gal(b1-4)Glc
How it was run: as §1

GalNAc(b1-4)GlcNAc = target: GalNAc(b1-4)GlcNAc
How it was run: as §1

B1: GSL-I-B4 (Griffonia simplicifolia) (protein)
chain: NFWSDVEDSIIFQGDANTTAGTLQLCKTNQYGTPLQWSAGRALYSDPVQLWDNKTESVASFYTEFTFFLKITGNGPADGLAFFLAPPDSDVKDAGEYLGLFNKSTATQPSKNQVVAVEFDTWTNPNFPEPSYRHIGINVNSIVSVATKRWEDSDIFSGKIATARISYDGSAEILTVVLSYPDGSDYILSHSVDMRQNLPESVRVGISASTGNNQFLTVYILSWRFSSNLQSTSVKAAMEPEITRTVV
[1]
  glycan array binding signal (z-score): -0.164
[2]
  glycan array binding signal (z-score): -0.174
[3]
  glycan array binding signal (z-score): -0.187
Gal(b1-4)GlcNAc6P
  glycan array binding signal (z-score): -0.167
Gal(b1-6)Gal
  glycan array binding signal (z-score): -0.149
Gal3S(b1-3)GalNAc
  glycan array binding signal (z-score): -0.237
Gal3S(b1-3)GlcNAc
  glycan array binding signal (z-score): -0.233
[4]
  glycan array binding signal (z-score): -0.19
Gal3S(b1-4)Glc
  glycan array binding signal (z-score): -0.151
Gal3S(b1-4)Glc6S
  glycan array binding signal (z-score): -0.193
Gal3S(b1-4)GlcNAc
  glycan array binding signal (z-score): -0.174
[5]
  glycan array binding signal (z-score): -0.009
[6]
  glycan array binding signal (z-score): -0.251
[7]
  glycan array binding signal (z-score): -0.167
Gal3S4S(b1-4)GlcNAc
  glycan array binding signal (z-score): -0.184
Gal3S6S(b1-4)GlcNAc
  glycan array binding signal (z-score): -0.208
Gal3S6S(b1-4)GlcNAc6S
  glycan array binding signal (z-score): -0.21
Gal4S(b1-4)GlcNAc
  glycan array binding signal (z-score): -0.22
Gal4S6S(b1-4)GlcNAc
  glycan array binding signal (z-score): -0.177
Gal6P(b1-4)GlcNAc
  glycan array binding signal (z-score): -0.258
Gal6S(b1-3)GlcNAc
  glycan array binding signal (z-score): -0.267
Gal6S(b1-3)GlcNAc6S
  glycan array binding signal (z-score): -0.277
Gal6S(b1-4)Glc
  glycan array binding signal (z-score): -0.195
Gal6S(b1-4)Glc6S
  glycan array binding signal (z-score): -0.174
Gal6S(b1-4)GlcNAc
  glycan array binding signal (z-score): -0.19
Gal6S(b1-4)GlcNAc6S
  glycan array binding signal (z-score): -0.191
GalNAc(a1-3)Gal
  glycan array binding signal (z-score): -0.18
GalNAc(a1-3)GalNAc
  glycan array binding signal (z-score): -0.263
[8]
  glycan array binding signal (z-score): -0.17
[9]
  glycan array binding signal (z-score): -0.156
GalNAc(b1-3)Gal
  glycan array binding signal (z-score): -0.112
[10]
  glycan array binding signal (z-score): -0.171
[11]
  glycan array binding signal (z-score): -0.162
[12]
  glycan array binding signal (z-score): -0.165
GalNAc(b1-3)GalNAc
  glycan array binding signal (z-score): -0.167
GalNAc(b1-3)GlcNAc
  glycan array binding signal (z-score): -0.205
GalNAc(b1-4)Gal(b1-4)Glc
  glycan array binding signal (z-score): -0.154
GalNAc(b1-4)GlcNAc
  glycan array binding signal (z-score): -0.152
